The text below walks through data of paper PMC4336329 (PLoS ONE, 2015).

Hit rate of the full screen: of about 310,000 compounds, about 14,000 (4.5%) showed an effect of 50% or more. The effect is printed as a negative number. The list shows a part of the results.
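Further: peak tail current of the secondary pulse compared with the same well before compound.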

Chain of human ether-à-go-go-related gene (hERG) potassium channel (Q12809 whole entry, looked up): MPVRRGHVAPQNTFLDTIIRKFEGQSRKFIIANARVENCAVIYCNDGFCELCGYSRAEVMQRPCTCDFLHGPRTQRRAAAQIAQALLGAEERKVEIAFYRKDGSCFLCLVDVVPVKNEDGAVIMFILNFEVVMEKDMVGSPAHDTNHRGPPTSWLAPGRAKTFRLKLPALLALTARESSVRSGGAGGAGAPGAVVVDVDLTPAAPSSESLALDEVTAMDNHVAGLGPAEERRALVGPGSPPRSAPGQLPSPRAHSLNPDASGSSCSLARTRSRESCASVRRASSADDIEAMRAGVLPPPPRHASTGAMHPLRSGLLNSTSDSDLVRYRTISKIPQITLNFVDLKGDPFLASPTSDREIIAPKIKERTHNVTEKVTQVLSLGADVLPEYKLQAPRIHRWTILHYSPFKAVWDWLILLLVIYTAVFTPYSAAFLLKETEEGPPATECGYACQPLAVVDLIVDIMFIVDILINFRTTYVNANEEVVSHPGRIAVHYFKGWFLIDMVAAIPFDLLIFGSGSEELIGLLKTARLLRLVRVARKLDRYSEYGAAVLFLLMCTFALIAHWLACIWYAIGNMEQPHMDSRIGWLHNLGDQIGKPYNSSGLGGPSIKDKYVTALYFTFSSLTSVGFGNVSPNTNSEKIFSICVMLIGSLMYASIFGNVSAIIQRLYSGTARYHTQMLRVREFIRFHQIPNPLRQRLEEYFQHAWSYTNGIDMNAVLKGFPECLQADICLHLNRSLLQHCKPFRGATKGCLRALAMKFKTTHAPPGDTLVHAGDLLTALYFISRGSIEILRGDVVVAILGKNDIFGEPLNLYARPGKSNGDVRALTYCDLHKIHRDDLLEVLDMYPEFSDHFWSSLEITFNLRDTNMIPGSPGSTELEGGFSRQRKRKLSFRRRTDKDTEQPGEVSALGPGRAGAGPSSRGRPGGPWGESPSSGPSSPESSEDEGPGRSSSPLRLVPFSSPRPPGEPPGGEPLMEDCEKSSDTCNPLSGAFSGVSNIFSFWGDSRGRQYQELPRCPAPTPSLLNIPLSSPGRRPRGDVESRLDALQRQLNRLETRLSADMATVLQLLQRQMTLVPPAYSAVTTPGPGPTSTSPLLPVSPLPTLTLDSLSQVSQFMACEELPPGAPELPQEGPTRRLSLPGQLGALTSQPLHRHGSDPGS

The assay addresses human ether-à-go-go-related gene (hERG) potassium channel (human, UniProt Q12809). As to the kind of experiment: primary screen, population patch clamp on CHO cells stably expressing hERG.
For the compound `Cc1nc(NC(=O)COc2ccccc2)sc1C(=O)Nc1cccc(Cl)c1`, the “hERG current change (%, negative = inhibition) at 10uM” value was -5.63%.

Regarding `CCCCN1C(=O)C(=O)NC[C@@H]1C(C)O` (stereo partly drawn), the “hERG current change (%, negative = inhibition) at 10uM” value was found to be 15.6%.

For the compound `O=C1CN(C(=O)CSc2nc3ccccc3c(=O)n2CC2CCCO2)c2ccccc2N1` (stereo not drawn), the “hERG current change (%, negative = inhibition) at 10uM” value is recorded as -31.3%.

With `COc1ccc(C(=O)Nc2nnc(-c3ccco3)s2)cc1`, the “hERG current change (%, negative = inhibition) at 10uM” value was determined as 13.2%.

Consider `Cc1ccc(-c2ccc(=O)n(CC(=O)Nc3ccc4c(c3)OCCO4)n2)cc1`, for which the “hERG current change (%, negative = inhibition) at 10uM” value is recorded as -8.73%.

For the compound `Cl.N[C@@H](Cc1ccc(O)cc1)c1nnc([C@H](CC(=O)O)NC(=O)C2CCNCC2)o1`, the “hERG current change (%, negative = inhibition) at 10uM” value is 7.64%.

As for `CCOc1ccc(N2CC(=O)N/C2=N\c2nc(C)cc(C)n2)cc1`, the “hERG current change (%, negative = inhibition) at 10uM” value was -18.5%.

On to `Cc1ccc2cc(CN(c3ccccc3)S(=O)(=O)c3ccccc3)c(=O)[nH]c2c1`, for which the “hERG current change (%, negative = inhibition) at 10uM” value is -2.83%.

Turning to `CCc1ccc(C(=O)N2CCC(c3nc4ccccc4s3)CC2)cc1`, the “hERG current change (%, negative = inhibition) at 10uM” value is reported as -71.9%.

Regarding `COC(=O)NNC(=S)Nc1ccc(Br)cc1`, the “hERG current change (%, negative = inhibition) at 10uM” value was -5.79%.

For `NC(=O)C1(S(=O)(=O)c2ccccc2)CCCCC1`, the “hERG current change (%, negative = inhibition) at 10uM” value stood at 13.2%.

For the compound `CC1=C(CC/C(C)=N/NC(N)=S)C(C)(C)CCC1`, the “hERG current change (%, negative = inhibition) at 10uM” value was 4.93%.

In the case of `COc1ccc2c(c1OC)C(=O)NC(C)=C(C(=O)OC(C)(C)C)C2O` (stereo not drawn), the “hERG current change (%, negative = inhibition) at 10uM” value worked out at 6.49%.

With `Cc1cc(NC(=S)N(Cc2ccc(Cl)cc2)Cc2ccc(C(=O)O)cc2)ccc1Cl`, the “hERG current change (%, negative = inhibition) at 10uM” value is on record as 29.1%.

For the compound `Cc1cc2c(c(=O)n1Cc1cccnc1)C(c1ccccc1)C(C#N)=C(N)O2` (stereo not drawn), the “hERG current change (%, negative = inhibition) at 10uM” value is recorded as 22%.

`CCOc1ccc(C(=O)NCCNC(=O)c2ccc(OCC)cc2)cc1`: the “hERG current change (%, negative = inhibition) at 10uM” value came out at 9.15%.

In the case of `Cc1noc(C)c1N=Nc1ccc(Br)cc1C(=O)O`, the “hERG current change (%, negative = inhibition) at 10uM” value was determined as 5.19%.

With `CCc1nnc(NC(=O)c2ccc(N(C)S(=O)(=O)c3ccccc3)cc2)s1`, the “hERG current change (%, negative = inhibition) at 10uM” value is recorded as -0.249%.

Take `Cc1ccc(O)c(-c2cc(C(=O)Nc3cccnc3)[nH]n2)c1`: the “hERG current change (%, negative = inhibition) at 10uM” value is recorded as 2.13%.

With `Cc1ccc(-n2c(SCC(=O)OC(C)C)nnc2-c2ccncc2)cc1`, the “hERG current change (%, negative = inhibition) at 10uM” value amounted to 5.96%.

For the compound `CCc1ccc(-c2nnn(CCC(=O)OC)n2)cc1`, the “hERG current change (%, negative = inhibition) at 10uM” value is reported as -5.94%.

For `O=C(N/N=C/c1c[nH]c2ccccc12)c1cc(-c2ccccc2)n[nH]1`, the “hERG current change (%, negative = inhibition) at 10uM” value is on record as -0.363%.

Regarding `CCOC(=O)c1c(-c2ccccc2)oc2ccc(OCC(N)=O)cc12`, the “hERG current change (%, negative = inhibition) at 10uM” value is listed as 14.8%.

For the compound `CCCCCCCCC1=NCCc2c1[nH]c1ccccc21.Cl`, the “hERG current change (%, negative = inhibition) at 10uM” value was -79.2%.

As to `CC1CCC(C(C)C)C(OCC(O)CN2CCOCC2)C1.Cl` (stereo not drawn), the “hERG current change (%, negative = inhibition) at 10uM” value is on record as -0.613%.

With `COc1ccc(Nc2nc(NN)nc(Nc3ccc(OC)cc3)n2)cc1`, the “hERG current change (%, negative = inhibition) at 10uM” value is given as 4.64%.

For the compound `COc1cc(C2C(C(=O)c3ccc(C)o3)=C(O)C(=O)N2c2cc(C)on2)ccc1O` (stereo not drawn), the “hERG current change (%, negative = inhibition) at 10uM” value is listed as 2.16%.

Turning to `Cc1nnc(NC(=O)c2ccc(-c3cccc(C(F)(F)F)c3)o2)s1`, the “hERG current change (%, negative = inhibition) at 10uM” value is on record as 6.41%.

For `Br.COc1ccc(-c2nc(C)sc2C)cc1`, the “hERG current change (%, negative = inhibition) at 10uM” value was -6.46%.

For the compound `O=C(Nc1sc2c(c1-c1nc3ccccc3[nH]1)CCCC2)C1CCCC1`, the “hERG current change (%, negative = inhibition) at 10uM” value is 6.08%.

`O=C(C1=C[C@H](c2ccc(C(F)(F)F)cc2)C[C@H](OCc2ccc(CO)cc2)O1)N1CCOCC1`: the “hERG current change (%, negative = inhibition) at 10uM” value is listed as -26.7%.

As to `COc1ccc(C2(O)CCN(CC(=O)Nc3nc(-c4ccccc4)cs3)CC2)cc1`, the “hERG current change (%, negative = inhibition) at 10uM” value was -10.1%.

In the case of `CCOC(=O)c1ccc(NC(=O)Cn2nnc(-c3ccccc3F)n2)cc1`, the “hERG current change (%, negative = inhibition) at 10uM” value is recorded as 4.41%.

As to `CC1CCCC(C)N1C(=O)CSc1nnc(COc2ccc(F)cc2)o1` (stereo not drawn), the “hERG current change (%, negative = inhibition) at 10uM” value amounted to 6.64%.

Turning to `O=C1c2ccccc2NC(c2ccc([N+](=O)[O-])cc2)N1O` (stereo not drawn), the “hERG current change (%, negative = inhibition) at 10uM” value was -11.1%.

As for `CCn1cc([C@@H]2C[C@H]3CN(Cc4cccc(Cl)c4)C(=O)[C@]34CCCN24)c(C)n1`, the “hERG current change (%, negative = inhibition) at 10uM” value was -41.7%.

In the case of `Cn1ccsc1=NC(=O)c1cc(S(=O)(=O)N2CCOCC2)ccc1F`, the “hERG current change (%, negative = inhibition) at 10uM” value is recorded as -6.62%.

As for `CC1(c2nnc(-c3ccc(F)cc3)o2)CC(c2cccnc2)=NO1` (stereo not drawn), the “hERG current change (%, negative = inhibition) at 10uM” value is reported as 9.6%.

As to `CCc1cccc2c(=O)c(C(=O)N3CCCCCC3)c[nH]c12`, the “hERG current change (%, negative = inhibition) at 10uM” value was -7.1%.

Turning to `CCOC(=O)c1c(C)[nH]c(C(=O)NNC(=O)c2ccccc2)c1C`, the “hERG current change (%, negative = inhibition) at 10uM” value is on record as -11.8%.

With `O=C(Nc1nc(-c2ccc(Cl)s2)cs1)c1ccccc1`, the “hERG current change (%, negative = inhibition) at 10uM” value is reported as -6.58%.

As to `CCn1c(SCC(=O)Nc2nc(C)c(C)s2)nc2cccnc21`, the “hERG current change (%, negative = inhibition) at 10uM” value was -1.75%.

Consider `O=C(Cn1ncc2c(=O)oc3ccccc3c21)N1CCCc2ccccc21`, for which the “hERG current change (%, negative = inhibition) at 10uM” value is reported as -36.3%.

Consider `CCOC(=O)c1cc(-c2ccccc2)sc1NC(=O)C(C)C`, for which the “hERG current change (%, negative = inhibition) at 10uM” value was 13.8%.

Take `C=CCN(c1cccc(C(F)(F)F)c1)S(=O)(=O)c1cccc(C(=O)OCC(=O)NC(N)=O)c1`: the “hERG current change (%, negative = inhibition) at 10uM” value is reported as -6.14%.
